The source of these data is US20260184782A1 (TWIST BIOSCIENCE, published 2026).

Assay [1] deals with T1, TIGIT (UniProt Q495A1 22-141, limits assumed).
T1 construct: construct not described; also called T cell immunoreceptor with Ig and ITIM domains
T1 sequence (looked up): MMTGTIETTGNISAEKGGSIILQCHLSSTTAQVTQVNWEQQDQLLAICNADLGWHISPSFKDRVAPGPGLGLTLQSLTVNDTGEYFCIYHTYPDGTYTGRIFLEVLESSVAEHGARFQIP
Put plainly: Carterra SPR, VHH-Fc.

Assay [2] deals with T1, TIGIT. Put plainly: ELISA.

B1: TIGIT-29-06 VHH-Fc (Fc fusion)
chain: EVQLVESGGGLVQAGGSLRLSCAASGGTFRSYVMGWFRQAPGKEREWVATINSSGSRTYYADSVKGRFTISADNAKNTVYLQMNSLKPEDTAVYYCAARPNYRDYEYWGQGTQVTVSSGGGGS[in this place human IgG1 Fc with C220S (EU numbers)]
notes: also called 29-6
On to B1, for which, in the assay with TIGIT [1], the Kd stood at 69 nM, the off-rate constant (koff) stood at 0.0068 s⁻¹ and the kon stood at 99000 M⁻¹ s⁻¹. Besides, the ELISA in the assay with TIGIT [2] was 6.8.

B2: TIGIT-29-31 VHH-Fc (Fc fusion)
chain: EVQLVESGGGLVQAGGSLRLSCAASGFTFSIYAMGWFRQAPGKEREWVSTISWSGGNTYYADSVKGRFTISADNAKNTVYLQMNSLKPEDTAVYYCATRPRFRRYDSWGQGTQVTVSSGGGGS[in this place human IgG1 Fc with C220S (EU numbers)]
In the assay with TIGIT [1], B2 yielded a Kd of 96 nM, a koff of 0.009 s⁻¹ and a kon of 95000 M⁻¹ s⁻¹. For the same molecule, the ELISA in the assay with TIGIT [2] was found to be 4.4.

B3: TIGIT-29-35 VHH-Fc (Fc fusion)
chain: EVQLVESGGGLVQAGGSLRLSCAASGRIFSIYTMGWFRQAPGKEREWVATINSSGSRTYYADSVKGRFTISADNAKNTVYLQMNSLKPEDTAVYYCAARPSYNRYDSWGQGTQVTVSSGGGGS[in this place human IgG1 Fc with C220S (EU numbers)]
In the case of B3, in the assay with TIGIT [1], the koff amounted to 0.02 s⁻¹ and the kon was 490 M⁻¹ s⁻¹. This molecule also returned an ELISA with TIGIT [2] of 3.1.

B4: TIGIT-29-16 VHH-Fc (Fc fusion)
chain: EVQLVESGGGLVQAGGSLRLSCAASGSIFSIYAMGWFRQAPGKEREWVATISWGGNSTYYADSVKGRFTISADNAKNTVYLQMNSLKPEDTAVYYCAARPRFRTYGYWGQGTQVTVSSGGGGS[in this place human IgG1 Fc with C220S (EU numbers)]
In the assay with TIGIT [1], B4 displayed a Kd of 246 nM, a koff of 53 s⁻¹ and a kon of 2.1e+08 M⁻¹ s⁻¹. Moreover, in the assay with TIGIT [2], the ELISA stood at 4.2.

B5: TIGIT-29-4 VHH-Fc (Fc fusion)
chain: EVQLVESGGGLVQAGGSLRLSCAASGSTFDTYVMGWFRQAPGKERELVSTISSDGDSTYYADSVKGRFTISADNAKNTVYLQMNSLKPEDTAVYYCAAGTRRGRNYWGQGTQVTVSSGGGGS[in this place human IgG1 Fc with C220S (EU numbers)]
In the assay with TIGIT [1], B5 displayed a Kd of 109 nM, a koff of 20 s⁻¹ and a kon of 1.9e+08 M⁻¹ s⁻¹. The ELISA with TIGIT [2] is 7.7.

B6: TIGIT-29-07 VHH-Fc (Fc fusion)
chain: EVQLVESGGGLVQAGGSLRLSCAASGSIFSNYAMGWFRQAPGKEREFVATISRGGTRTNYADSVKGRFTISADNAKNTVYLQMNSLKPEDTAVYYCAAAAWTIYAYNYWGQGTQVTVSSGGGGS[in this place human IgG1 Fc with C220S (EU numbers)]
notes: also called TIGIT-29-7; 29-7
Take B6: in the assay with TIGIT [1], the equilibrium dissociation constant (Kd) is 41 nM, the koff stood at 0.0047 s⁻¹ and the kon is 110000 M⁻¹ s⁻¹. The same molecule came in with an ELISA with TIGIT [2] of 7.3.

B7: TIGIT-29-12 VHH-Fc (Fc fusion)
chain: EVQLVESGGGLVQAGGSLRLSCAASGSTFSSYAMGWFRQAPGKEREFVAAITWSGTRTNYADSVKGRFTISADNAKNTVYLQMNSLKPEDTAVYYCAAAAWTIYTYDSWGQGTQVTVSSGGGGS[in this place human IgG1 Fc with C220S (EU numbers)]
On to B7, for which, in the assay with TIGIT [1], the Kd came to 70 nM, the koff is 70 s⁻¹ and the kon was found to be 1e+09 M⁻¹ s⁻¹. Besides, in the assay with TIGIT [2], the ELISA was 6.2.

B8: TIGIT-29-44 VHH-Fc (Fc fusion)
chain: EVQLVESGGGLVQAGGSLRLSCAASGFTFDNYAMGWFRQAPGKEREFVATITWSGTTTNYADSVKGRFTISADNAKNTVYLQMNSLKPEDTAVYYCAAAAWTIYDYDYWGQGTQVTVSSGGGGS[in this place human IgG1 Fc with C220S (EU numbers)]
In the assay with TIGIT [1], B8 showed a Kd of 183 nM, an off-rate (koff) of 130 s⁻¹ and a kon of 7.3e+08 M⁻¹ s⁻¹. This molecule also returned an ELISA with TIGIT [2] of 7.4.

B9: TIGIT-29-21 VHH-Fc (Fc fusion)
chain: EVQLVESGGGLVQAGGSLRLSCAASGSTFSNYAMGWFRQAPGKERELVSAITWSSSRTYYADSVKGRFTISADNAKNTVYLQMNSLKPEDTAVYYCAAAAWTIYNFEYWGQGTQVTVSSGGGGS[in this place human IgG1 Fc with C220S (EU numbers)]
In the assay with TIGIT [1], B9 gave a dissociation constant (Kd) of 88 nM, a koff of 0.0024 s⁻¹ and an association rate constant (kon) of 28000 M⁻¹ s⁻¹. This molecule also displayed an ELISA with TIGIT [2] of 4.3.

B10: TIGIT-29-9 VHH-Fc (Fc fusion)
chain: EVQLVESGGGLVQAGGSLRLSCAASGFTFDNYAMGWFRQAPGKEREFVSSITWSGGRTSYADSVKGRFTISADNAKNTVYLQMNSLKPEDTAVYYCAANAWTIYRYDYWGQGTQVTVSSGGGGS[in this place human IgG1 Fc with C220S (EU numbers)]
In the assay with TIGIT [1], B10 displayed a Kd of 176 nM, a koff of 180 s⁻¹ and a kon of 1e+09 M⁻¹ s⁻¹. In the assay with TIGIT [2], this molecule gave an ELISA of 6.

B11: TIGIT-29-37 VHH-Fc (Fc fusion)
chain: EVQLVESGGGLVQAGGSLRLSCAASGRTFSNYAMGWFRQAPGKEREFVAGISWSGTRTYYADSVKGRFTISADNAKNTVYLQMNSLKPEDTAVYYCAAAAWTIYEYDYWGQGTQVTVSSGGGGS[in this place human IgG1 Fc with C220S (EU numbers)]
Regarding B11, in the assay with TIGIT [1], the Kd was 89 nM, the koff came to 89 s⁻¹ and the kon amounted to 1e+09 M⁻¹ s⁻¹. The ELISA in the assay with TIGIT [2] was 5.3.

B12: TIGIT-29-13 VHH-Fc (Fc fusion)
chain: EVQLVESGGGLVQAGGSLRLSCAASGFIFSNYAMGWFRQAPGKEREFVAAITWSGGRTYYADSVKGRFTISADNAKNTVYLQMNSLKPEDTAVYYCAAAAWTIYEYDYWGQGTQVTVSSGGGGS[in this place human IgG1 Fc with C220S (EU numbers)]
For B12, in the assay with TIGIT [1], the Kd came to 221 nM, the off-rate (koff) worked out at 220 s⁻¹ and the kon stood at 1e+09 M⁻¹ s⁻¹. For the same molecule, the ELISA in the assay with TIGIT [2] stood at 4.8.

B13: TIGIT-29-33 VHH-Fc (Fc fusion)
chain: EVQLVESGGGLVQAGGSLRLSCAASGFIFSTYAMGWFRQAPGKERELVSAITRSGITTYYADSVKGRFTISADNAKNTVYLQMNSLKPEDTAVYYCAAAAWTIYEYDYWGQGTQVTVSSGGGGS[in this place human IgG1 Fc with C220S (EU numbers)]
Turning to B13, in the assay with TIGIT [1], binding was put at a Kd of 74 nM, the koff was 74 s⁻¹ and the kon was 1e+09 M⁻¹ s⁻¹. In the assay with TIGIT [2], this molecule displayed an ELISA of 3.9.

B14: TIGIT-29-36 VHH-Fc (Fc fusion)
chain: EVQLVESGGGLVQAGGSLRLSCAASGFTFSSYAMGWFRQAPGKEREFVASITWSGTSTNYADSVKGRFTISADNAKNTVYLQMNSLKPEDTAVYYCAAAAWTIYAYDYWGQGTQVTVSSGGGGS[in this place human IgG1 Fc with C220S (EU numbers)]
As to B14, in the assay with TIGIT [1], the dissociation constant (Kd) was found to be 165 nM, the koff was 140 s⁻¹ and the kon was 8.6e+08 M⁻¹ s⁻¹. The same molecule yielded an ELISA with TIGIT [2] of 3.5.

B15: TIGIT-29-15 VHH-Fc (Fc fusion)
chain: EVQLVESGGGLVQAGGSLRLSCAASGRTFDSYAMGWFRQAPGKEREGVATISGSGGRTYYADSVKGRFTISADNAKNTVYLQMNSLKPEDTAVYYCAAAAWTIYEFDSWGQGTQVTVTSGGGGS[in this place human IgG1 Fc with C220S (EU numbers)]
As to B15, in the assay with TIGIT [1], binding was characterised by a dissociation constant (Kd) of 145 nM, the koff was determined as 150 s⁻¹ and the association rate constant (kon) stood at 1e+09 M⁻¹ s⁻¹. This molecule came in with an ELISA with TIGIT [2] of 9.3.

B16: TIGIT-29-45 VHH-Fc (Fc fusion)
chain: EVQLVESGGGLVQAGGSLRLSCAASGFTFSSYAMGWFRQAPGKEREFVASITWSGTRTDYADSVKGRFTISADNAKNTVYLQMNSLKPEDTAVYYCAAAAWTIYGYEYWGQGTQVTVSSGGGGS[in this place human IgG1 Fc with C220S (EU numbers)]
In the case of B16, in the assay with TIGIT [1], the Kd was 119 nM, the koff came out at 0.068 s⁻¹ and the kon was found to be 570000 M⁻¹ s⁻¹. The molecule further showed an ELISA in the assay with TIGIT [2] of 10.6.

B17: TIGIT-29-25 VHH-Fc (Fc fusion)
chain: EVQLVESGGGLVQAGGSLRLSCAASGFTFDNYAMGWFRQAPGKEREGVAAITWSGGRTYYADSVKGRFTISADNAKNTVYLQMNSLKPEDTAVYYCAAAAWTIYEYDSWGQGTQVTVTSGGGGS[in this place human IgG1 Fc with C220S (EU numbers)]
In the assay with TIGIT [1], B17 came in with a Kd of 138 nM, a koff of 42 s⁻¹ and a kon of 3e+08 M⁻¹ s⁻¹. Also, the ELISA in the assay with TIGIT [2] came to 6.3.

B18: TIGIT-29-18 VHH-Fc (Fc fusion)
chain: EVQLVESGGGLVQAGGSLRLSCAASGSTFSNYAMGWFRQAPGKEREFVSAINSSGSRTYYADSVKGRFTISADNAKNTVYLQMNSLKPEDTAVYYCAARLWGTWTAGDYDYWGQGTQVTVSSGGGGS[in this place human IgG1 Fc with C220S (EU numbers)]
In the case of B18, in the assay with TIGIT [1], the affinity, expressed as Kd, was 78 nM; the koff amounted to 0.05 s⁻¹; the kon stood at 640000 M⁻¹ s⁻¹. The ELISA with TIGIT [2] worked out at 10.9.

B19: TIGIT-29-11 VHH-Fc (Fc fusion)
chain: EVQLVESGGGLVQAGGSLRLSCAASGRTLSSYAMGWFRQAPGKEREFVASITWGGGRTYYADSVKGRFTISADNAKNTVYLQMNSLKPEDTAVYYCATRLWGTWTAGDYDYWGQGTQVTVSSGGGGS[in this place human IgG1 Fc with C220S (EU numbers)]
For B19, in the assay with TIGIT [1], binding was characterised by a dissociation constant (Kd) of 103 nM, the koff was found to be 44 s⁻¹ and the kon is 4.3e+08 M⁻¹ s⁻¹. The molecule also displayed an ELISA with TIGIT [2] of 10.4.
